In PubChem BioAssay AID1963576 (National Center for Advancing Translational Sciences (NCATS), 2024):
Among all 46,000 compounds or so, about 60 (0.1%) were called active. About 3% were inconclusive and are not listed. Calls come from the whole dose curve; as a rule, active = well fitted inhibition curve with a large enough effect; inconclusive = small, poorly fitted or top-dose-only effect; inactive = no such curve, though single readings can be large or run the other way. Some of the results follow.

Assay: Primary qHTS assay for Inhibitors of ovarian cancer metastasis using an organotypic tumor microenvironment (TME) model.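 For activity change, negative = inhibition: plate controls were DMSO wells for no effect and tomatine positive control wells for full effect.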 Note: nearly all actives have a fitted effect of over 65% in size.
Conditions: SKOV3ip1-GFP adhesion/invasion on 3D omental model, fluorescence; series mostly up to 45.8 µM; activity change, negative = inhibition: at the top concentration
Method in brief: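 Primary human omental fibroblast/mesothelial 3D culture pre-formed 48 h. SKOV3ip1-GFP cells added with compounds (0.36-46 umol/L), incubated 2 h RT/16 h 37 C, fixed; GFP cells quantified at 488/509 nm.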

Activity change, negative = inhibition, inactive:
COc1ccc(CCNC(=O)c2ccc3[nH]c(C)c(C)c3c2)cc1OC 16.4%
O=C(Nc1ccccc1)c1ccc(Cl)c(S(=O)(=O)Nc2ccccc2)c1 3.45%
Cc1ccc(C(=O)c2cn(Cc3ccccc3)c3c(F)cc(F)cc3c2=O)cc1 -1.1%
COc1ccc(S(=O)(=O)N2CCCCC2)cc1C(=O)NC1CCS(=O)(=O)C1 (stereo not given) 8.23%
CCOc1ccccc1CNC(=O)CN1C(=O)c2cccnc2Oc2ccc(Cl)cc21 0.016%
COc1ccc2nc(N(Cc3cccnc3)C(=O)c3ccc(Cl)cc3)sc2c1 3.88%
Cn1c(=O)c(=O)n(C)c2cc(N3CCCC3)c(NC(=O)c3ccccc3Cl)cc21 7.15%
Cc1cc(Nc2cccc(Cl)c2)nc2ccc(NC(=O)Cc3c(F)cccc3Cl)cc12 -23.3%
CCC1Oc2ccccc2N(CC(=O)NCc2ccccc2)C1=O (stereo not given) 13.9%
COc1ccc(N2CCN(C(=O)c3cn(C)c4ccc(S(=O)(=O)N5CCOCC5)cc4c3=O)CC2)cc1 1.04%
CCN1C(=O)C2(c3ccccc31)c1c(oc3ccccc3c1=O)C(=O)N2CCOC (stereo not given) 61.5%
CCC(C(=O)O)C1CCC(C)C(C(C)C(O)C(C)C(=O)C(CC)C2OC3(C=CC(O)[C@@]4(CC[C@](C)(C5CC[C@@](O)(CC)C(C)O5)O4)O3)C(C)CC2C)O1 (stereo not given in full) -29.1%
N[C@H](CSC(c1ccccc1)(c1ccccc1)c1ccccc1)C(=O)O 0.819%
CCCCN(C)C(=O)c1ccc2c(c1)NC(=O)C(CC(C)C)N2 (stereo not given) -6.5%
O=C(Nc1ccc(Br)cc1)c1cc(S(=O)(=O)N2CCc3ccccc32)ccc1F 0.694%
CCOc1ccccc1CNC(=O)CN1C(=O)c2cccnc2Oc2ccc(C)cc21 -8.94%
CCn1c(=O)c2sccc2n2c(CCCC(=O)Nc3ccc(Oc4ccccc4)cc3)nnc12 19.8%
Cc1c(C(=O)Nc2ccccc2F)sc2nc3n(c(=O)c12)CCC3 -3.79%
Cc1cc(C)cc(OCC(=O)N(Cc2ccco2)Cc2ccccc2Cl)c1 21.3%
Cc1ccc(-c2nc(-c3cccs3)c(-c3cccs3)[nH]2)cc1 -3.61%
Cc1ccc(S(=O)(=O)c2nnn3c2nc(NC2CCCCC2)c2sccc23)cc1C 25.2%
Cc1ccc(NC(=O)c2nc(S(C)(=O)=O)ncc2N(Cc2ccco2)Cc2ccco2)cc1 -0.49%
O=C(Nc1ncc(Cc2ccccc2Cl)s1)c1ccc2c(c1)CC(c1ccccc1)OC2=O (stereo not given) -0.887%
CCCCN(CC)CCCNC(=O)c1nn(-c2ccc(OC)cc2)c(=O)c2c1c1ccccc1n2C 1.59%
COc1ccc(CC(=O)Nc2nnc3n2CCS3)cc1OC -14.6%
CCc1ccccc1NC(=O)Cn1nnc(C(=O)NCc2cccc(OC)c2)c1N -9.52%
COc1ccc(C)cc1-n1c(SCC(=O)NCc2ccco2)nc2c([nH]c3ccccc32)c1=O -2.21%
CC1CCc2nc3ncn(Cc4cccc(F)c4)c(=O)c3cc2C1 (stereo not given) -13.1%
Cc1ccc(NC(=O)Cn2c(=O)n(CC(=O)NCCc3ccccc3)c(=O)c3ccccc32)cc1 5.36%
COCCNC(=O)c1cc(-c2cccc(Cl)c2)on1 28.5%
CCCCN(CC)CCCNC(=O)c1sc2nc3n(c(=O)c2c1C)CCCCC3 -14.7%
Cc1ccc(CCNC(=O)CCCn2c(=O)c3cccn3c3ccc(F)cc32)cc1 -2.83%
Cc1ccc(-n2nc(C(=O)N(C)c3ccccc3Cl)c3c4ccccc4n(C)c3c2=O)cc1 4.3%
COC(=O)c1cc2occc2n1Cc1nc(-c2ccc(Cl)cc2)oc1C 0.367%
Cc1ccc(NC(=O)Cn2cc(S(=O)(=O)Cc3ccccc3)c3ccccc32)cc1C -8.44%
CCc1ccc(S(=O)(=O)c2cn(C)c3ccc(C)cc3c2=O)cc1 -6.89%
CCc1ccccc1NC(=O)Cn1nc(C)c2nn(-c3ccc(Cl)cc3)c(C)c2c1=O -70.8%
COc1cc2[nH]c(=O)n(CCCC(=O)N(C)Cc3ccccc3)c(=O)c2cc1OC 8.69%
CCOCCCNC(=O)CN1C(=O)CCn2nc(-c3cccn3C)cc21 -13.5%
COc1ccc(NC(=O)CN2C(=O)C(c3ccccc3)=NC23CCC(C)CC3)cc1Cl (stereo not given) -3.07%
CSc1ccc(CCNC(=O)C2CCCN(S(=O)(=O)N(C)c3ccc(F)cc3)C2)cc1 (stereo not given) 9.57%
CCOC(=O)C(Cc1ccccc1)NC(=O)Cn1nnc(-c2ccc(C)cc2)n1 (stereo not given) 2.55%
CN(C)S(=O)(=O)N(CC(=O)NCCSCc1ccc(Cl)cc1Cl)c1ccccc1 29%
O=C1Cc2cc(S(=O)(=O)Nc3cccc(C(F)(F)F)c3)cc3c2N1CCC3 3.63%
CC(C)c1ccc(NC(=O)c2cc(S(=O)(=O)NCCc3ccccc3)ccc2F)cc1 -19.6%
Cc1cccn2c(=O)cc(COc3cccc(NC(=O)Nc4cccc(Cl)c4)c3)nc12 47.4%
COc1cc(C=CC(=O)O)ccc1O 0.771%
Cc1nn(CC(=O)N2CCN(c3ccccc3F)CC2)c(=O)c2cccn12 -8.63%
CCN(CC)c1ccc2nc3c(=O)n(C)c(=O)n(C)c3nc2c1 -21.9%
CC(C)c1ccc(NC(=O)[C@H]2O[C@@H]3OC(C)(C)O[C@@H]3[C@H]3OC(C)(C)O[C@H]32)cc1 4.12%
COc1ccc(CNC(=O)CCn2c(=O)c3cccn3c3ccc(F)cc32)cc1OC -6%
CCc1ccc2occ(CC(=O)Nc3nnc(SC)s3)c2c1 -15.4%
CCOc1ccc(-c2nnc(SCC(=O)NC3CCCCC3)nc2-c2ccc(OCC)c(OC)c2)cc1OC 2.51%
CC(C)c1nn2c(=O)cc(COC(=O)c3cccc(NC(=O)CCc4ccccc4)c3)nc2s1 5.17%
O=C(CSc1oc(-c2ccc(F)cc2)nc1S(=O)(=O)c1ccccc1)c1ccc(Cl)cc1 9.43%
CCN(Cc1ccccc1)C(=O)Cn1c(=O)cc(C)c2c(C)nn(-c3cccc(F)c3)c21 2.96%
COc1ccc(Cc2c(C)nn(-c3nc(C)c(C(=O)Nc4cccc(C(C)=O)c4)s3)c2C)cc1 5.62%
CCc1ccc2nc(N(Cc3cccnc3)C(=O)Cc3ccccc3)sc2c1 -13.3%
O=C(O)c1ccc(Nc2ncnc3scc(-c4ccccc4)c23)cc1 -7.94%
Cn1c(=O)c2c(-c3ccccc3)n(-c3cccc(C#N)c3)cc2n(C)c1=O 8.52%
COc1ccc(-c2ccc(=O)n(CC(=O)Nc3ccc(Br)cc3F)n2)cc1 3.23%
CCS(=O)(=O)c1nc(S(=O)(=O)c2ccc(Cl)cc2)c(NCc2ccc(Cl)cc2)s1 2.4%
CCOC(=O)c1[nH]c(C)c(CCC(=O)N2CCN(c3ccc(Cl)cc3)CC2)c1C 5.12%
O=C(NCc1ccccc1)c1c2c(nc3ccccc13)C(=O)N(C1CCCCC1)C2 -1.51%
Cc1ccc2c(c1)N(C(=O)c1ccc(F)cc1)C(C)(C)CC2(C)c1ccccc1 (stereo not given) 3.64%
COC(=O)c1cc(OC)c(OC)cc1NC(=O)c1ccc2c(c1)CCN2S(C)(=O)=O -1.06%
CCC(C(=O)NCc1ccccc1Cl)n1c(=O)c2cccn2c2ccccc21 (stereo not given) 8.46%
O=C(Nc1cccc(-c2nc3ccccc3o2)c1)c1cccc(Br)c1 0.42%
CCCCC(=O)OC1=C(C(=O)c2ccccc2)N(CC)S(=O)(=O)c2ccccc21 10%
CSc1ccc(CNC(=O)c2cc3cc(S(=O)(=O)N4CCCCC4)ccc3n2C)cc1 -2.31%
COc1ccc(Cn2ccc3nc(C)c(C(=O)Nc4ccc(OC(F)(F)F)cc4)cc3c2=O)cc1 -0.648%
COc1ccccc1N1CCN(S(=O)(=O)c2c(C)nc3sc(C)c(C)n3c2=O)CC1 -24.2%
Cc1cccc(OCCSc2nc(-c3cccs3)nc3cc(=O)[nH]n23)c1 -2.14%
O=C(NCC(c1cccnc1)N1CCc2ccccc2C1)C(=O)Nc1ccccc1 (stereo not given) 7.1%

outcome, inactive:
O=S(=O)(NCC(c1ccco1)N1CCN(c2ccc(F)cc2)CC1)c1cc(F)ccc1F (stereo not given)
Cn1c(=O)c2c(-c3ccc(Cl)cc3)ccnc2n(C)c1=O
CCS(=O)(=O)N1CCC2(CC1)OC(=O)C(C)=C2C(=O)NCc1ccc(OC)c(OC)c1
COc1ccc(OC)c(NC(=O)N2CCC3(CC2)Oc2ccccc2C(=O)N3Cc2ccccc2F)c1
COc1ccc(-c2noc(CC(=O)N(C)c3cc(Cl)c(OC)cc3OC)n2)cc1
COc1ccc(NC(=O)CN2C(=O)C(=O)c3ccccc32)c(OC)c1
Cc1ccc(OCCSc2nc3ccccc3n2CCC(=O)O)cc1
CN(Cc1ccccc1)c1nc2c(S(=O)(=O)c3ccccc3)nnn2c2ccsc12
COc1ccc(CNC(=O)CCc2c(C)nc3c4cccnc4nn3c2C)cc1
O=C(CN1C(=O)COc2ccc(Cl)cc21)Nc1cccc(C(=O)O)c1
CCOC(=O)c1ccc(N2C(=O)c3n[nH]c(C)c3C2c2ccc(CC)cc2)cc1 (stereo not given)
C[C@H](NC(=O)OC(C)(C)C)c1nnc(SCc2ccc(Cl)cc2Cl)o1
COc1ccc(C(C)C)cc1S(=O)(=O)NCCc1c(C)[nH]c2c(Cl)cccc12
COc1ccc(-n2ccnc(NCCc3ccc(S(N)(=O)=O)cc3)c2=O)cc1Cl
Cc1cc(OC(C)C(=O)N(Cc2ccco2)Cc2ccco2)cc(C)c1Cl (stereo not given)
CCN1C(=O)c2ccccc2S(=O)(=O)c2ccc(C(=O)NCc3ccc(C)cc3)cc21
CC(C)c1ccc(NC(=O)C2CCC(CNS(=O)(=O)c3ccc4c(c3)CCCC(=O)N4)CC2)cc1 (stereo not given)
CCn1nc(C)c(CCN(C)C(=O)Nc2cc(Cl)c(OC)cc2OC)c1C
CCc1ccccc1N1C(=O)N(Cc2cc(=O)n3ccccc3n2)c2ccccc2S1(=O)=O
CCOC(=O)c1c(Nc2cc(C)cc(C)c2)nnc(-c2ccccc2)c1-c1ccccc1
COc1ccccc1CNS(=O)(=O)c1ccc(F)c(C(=O)Nc2cc(Cl)ccc2OC)c1
